Assay results: PubChem BioAssay AID1508624 (National Center for Advancing Translational Sciences (NCATS), 2021)
The whole screen tested about 48,000 compounds, of which about 120 (0.25%) were called active. Inconclusive results (about 4%) are left out. Calls come from the whole dose curve; as a rule, active = well fitted activation curve with a large enough effect; inconclusive = small, poorly fitted or top-dose-only effect, or another doubt; inactive = no such curve, though single readings can be large or run the other way. This is one part of the list.

Assay: Primary qHTS for Identification of Small Molecule Activators of Huntingtin-Antisense Promoter Activity; note: nearly all actives have a fitted effect of over 55% in size
Conditions: HEK293 HTT-AS promoter firefly luciferase reporter (activity 0% = vehicle and -100% = no light), 24 h; series mostly up to 57.5 µM; activity change, positive = activation: at the top concentration
Summary of the method: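 Firefly luciferase readout (Dual-Glo, 10 min RT) after 24 h, 37 °C compound exposure (final up to 57.5 uM) of HEK293 reporter cells cultured 24 h beforehand; PTC124 at 50 uM final as control inhibitor; activity scaled vehicle 0%, zero RLU -100%.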

Activity change, positive = activation, inactive:
CCn1c(=O)c2cc(C(=O)N(CC(C)C)CC(C)C)sc2c2ccccc21 -15.6%, Cc1ccc(CNc2ncnc3c2nc2n3CCCC2)cc1 -5.75%, CCN(C(=O)CSc1nc2ccccc2n1CC(=O)NCc1ccc(OC)cc1)c1ccccc1 -7.21%, CCOC(=O)c1cc(-c2ccccc2)n(CCC(=O)NC2CCCCC2)c1C -36%, Cc1ccc2nc(CSc3nnc(NC(=O)c4cccc(Br)c4)s3)cc(=O)n2c1 -1.15%, CCOC(=O)c1ccc(NC(=O)CN2c3ccccc3S(=O)(=O)c3ccccc32)cc1 -30.2%, CNC(=O)C1CCC(Cn2c(=O)c3sccc3n(CC(=O)NCc3cccc(OC)c3)c2=O)CC1 (stereo unspecified) -19.5%, Cc1cccc(-c2nc3scc(CCNC(=O)c4ccc(Br)o4)n3n2)c1 -16.6%, Nc1nc2c(c(=O)[nH]1)N(C=O)[C@H](CNc1ccc(C(=O)N[C@@H](CCC(=O)O)C(=O)O)cc1)CN2 -5.43%, COc1ccc(CNC(=O)CN2C(=O)COc3ccc(S(=O)(=O)NC4CCCC4)cc32)cc1 -19.2%, COc1ccccc1NC(=O)CSc1nnc2c3ccccc3n(C(C)C)c2n1 -29.9%, COc1ccc(/C=C\c2onc(C)c2S(=O)(=O)N2CCC(C(=O)Nc3cccc(Cl)c3)CC2)cc1 -28.2%, COc1ccc(CCNC(=O)CCc2c(C)nc3cc(-c4ccccc4OC)nn3c2C)c(OC)c1 -60.3%, Cc1ccc(Nc2nnc(-c3cc4c(ccc5ccccc54)oc3=O)s2)cc1 -17.3%, COc1cccc(C(=O)N2CCc3c([nH]c4ccccc34)C2c2ccc(SC)cc2)c1 (stereo unspecified) -23.7%, CCOC(=O)c1ccccc1NC(=O)n1ncc2cc(Cl)ccc21 0%, CCc1cccc(C)c1NC(=O)c1cc(S(=O)(=O)N2CCOCC2)cn1C -6.4%, COc1cc(NC(=O)CCn2cnc3ccccc3c2=O)cc(OC)c1 -20.1%, CCCCOc1ccc(CNC(=O)c2cc3n(n2)CCCN(Cc2ccc(C)cc2)C3=O)cc1 -23.4%, CCCCSCCCNC(=O)c1cn(CC)c2ccc(S(=O)(=O)N3CCCCCC3)cc2c1=O -17.6%, COc1ccc(OCCn2c(C)nc3cc(C)c(C)cc32)cc1 -10.3%, COc1ccc(-c2c(C)nn3c(N4CCN(c5ccccc5)CC4)cc(C)nc23)cc1OC -10.1%, COc1ccc(NC(=O)CC2C(=O)N(c3ccc(F)cc3)C(=O)N2Cc2ccc3c(c2)OCO3)cc1 (stereo unspecified) 2.77%, C[C@@H](O)[C@H]1C(=O)N2C(C(=O)O)=C(S[C@@H]3CN[C@H](C(=O)N(C)C)C3)[C@H](C)[C@H]12, CCCn1c(=N)c(C(=O)NC2CCCC2)cc2c(=O)n3cccc(C)c3nc21 -12.2%, COc1ccc(/C=C(/C#N)c2nc(-c3ccc(-c4ccccc4)cc3)cs2)cc1OC -24.3%
